From US5162315A, “Penetration enhancers” (priority 1989, dated 1992)

Description: The compounds of the present invention were tested in vitro as penetration enhancers according to the procedure outlined below. The penetration enhancers were formulated with pharmacologically active agents in creams and permeation of the active agent through human stratum corneum in vitro was compared to control formulation without enhancer. Higher permeation of the active agent in presence of an enhancer exemplified the invention.
Human stratum corneum was isolated from full thickness human skin as described by Bronaugh et al., J. Pharm. Sci. 75, 1094 (1986). The skin was placed between the donor and the receptor compartments of diffusion cells in such a way that the dermal side of the skin faced the receptor compartment which was filled with normal saline (pH 7.2-7.4). The stratum corneum was equilibrated at 37° C. overnight prior to the application of a topical formulation or transdermal patch. All formulations were studied in triplicate.
About 500 mg of the following three Isosorbide Dinitrate (ISDN) formulations (40% ISDN & 60% Lactose) were applied to cover the stratum corneum surface within the donor compartment. The entire contents of the receptor compartment were removed at specific time intervals over 48 hours and replenished with fresh saline. The aliquots were analyzed by HPLC and the average cumulative amount of ISDN in micrograms permeating over the study period was calculated.

SMILES | Average Cumulative Amount of ISDN in Micrograms permeating over 48 hours | ISDN permeation enhancement compared to cyclic isomer | ISDN permeation enhancing properties compared to control
CCCCCCCCCCCC1=NCCN1CCO [1-(2-hydroxyethyl)-2-undecyl-2-imidazoline, reference compound] | 872.3 ± 85 Micrograms | – | –
CCCCCCCCCCCC(=O)NCCNCCO [Example 1, N-[2-(2-hydroxyethyl)aminoethyl]dodecanamide] | 821.3 ± 56 Micrograms | as effective as its cyclic isomer | superior permeation enhancing properties as compared to control
CCCCCCCCCCCC(=O)N1CCN(CCO)CC1 [Example 5, 1-(1-oxododecyl)-4-(2-hydroxyethyl)piperazine] | 1160.9 ± 73 Micrograms | – | superior permeation enhancing properties as compared to control
